{"source": "PubChem BioAssay AID1347165", "about": "(National Center for Advancing Translational Sciences (NCATS), 2019)", "note": "In all, about 220,000 compounds went through this assay and about 5,700 (2.6%) were called active. The inconclusive results got no clear call from the source; some entries with a clear call stand among them for comparison. The call rests on the fitted dose curve; in most records, active means well fitted inhibition curve with a large enough effect; inconclusive means small, poorly fitted or top-dose-only effect; inactive means no such curve, though single readings can be large or run the other way. Potencies beside an inconclusive call are fits to weak or partial responses and may not hold up. Potency means the concentration at half of the fitted maximal effect; tags describe the fitted curve by direction and shape."}
{"biological_target": "Lysine-specific demethylase 5B (Homo sapiens) (UniProt Q9UGL1)", "sequence (Q9UGL1 whole entry, looked up)": "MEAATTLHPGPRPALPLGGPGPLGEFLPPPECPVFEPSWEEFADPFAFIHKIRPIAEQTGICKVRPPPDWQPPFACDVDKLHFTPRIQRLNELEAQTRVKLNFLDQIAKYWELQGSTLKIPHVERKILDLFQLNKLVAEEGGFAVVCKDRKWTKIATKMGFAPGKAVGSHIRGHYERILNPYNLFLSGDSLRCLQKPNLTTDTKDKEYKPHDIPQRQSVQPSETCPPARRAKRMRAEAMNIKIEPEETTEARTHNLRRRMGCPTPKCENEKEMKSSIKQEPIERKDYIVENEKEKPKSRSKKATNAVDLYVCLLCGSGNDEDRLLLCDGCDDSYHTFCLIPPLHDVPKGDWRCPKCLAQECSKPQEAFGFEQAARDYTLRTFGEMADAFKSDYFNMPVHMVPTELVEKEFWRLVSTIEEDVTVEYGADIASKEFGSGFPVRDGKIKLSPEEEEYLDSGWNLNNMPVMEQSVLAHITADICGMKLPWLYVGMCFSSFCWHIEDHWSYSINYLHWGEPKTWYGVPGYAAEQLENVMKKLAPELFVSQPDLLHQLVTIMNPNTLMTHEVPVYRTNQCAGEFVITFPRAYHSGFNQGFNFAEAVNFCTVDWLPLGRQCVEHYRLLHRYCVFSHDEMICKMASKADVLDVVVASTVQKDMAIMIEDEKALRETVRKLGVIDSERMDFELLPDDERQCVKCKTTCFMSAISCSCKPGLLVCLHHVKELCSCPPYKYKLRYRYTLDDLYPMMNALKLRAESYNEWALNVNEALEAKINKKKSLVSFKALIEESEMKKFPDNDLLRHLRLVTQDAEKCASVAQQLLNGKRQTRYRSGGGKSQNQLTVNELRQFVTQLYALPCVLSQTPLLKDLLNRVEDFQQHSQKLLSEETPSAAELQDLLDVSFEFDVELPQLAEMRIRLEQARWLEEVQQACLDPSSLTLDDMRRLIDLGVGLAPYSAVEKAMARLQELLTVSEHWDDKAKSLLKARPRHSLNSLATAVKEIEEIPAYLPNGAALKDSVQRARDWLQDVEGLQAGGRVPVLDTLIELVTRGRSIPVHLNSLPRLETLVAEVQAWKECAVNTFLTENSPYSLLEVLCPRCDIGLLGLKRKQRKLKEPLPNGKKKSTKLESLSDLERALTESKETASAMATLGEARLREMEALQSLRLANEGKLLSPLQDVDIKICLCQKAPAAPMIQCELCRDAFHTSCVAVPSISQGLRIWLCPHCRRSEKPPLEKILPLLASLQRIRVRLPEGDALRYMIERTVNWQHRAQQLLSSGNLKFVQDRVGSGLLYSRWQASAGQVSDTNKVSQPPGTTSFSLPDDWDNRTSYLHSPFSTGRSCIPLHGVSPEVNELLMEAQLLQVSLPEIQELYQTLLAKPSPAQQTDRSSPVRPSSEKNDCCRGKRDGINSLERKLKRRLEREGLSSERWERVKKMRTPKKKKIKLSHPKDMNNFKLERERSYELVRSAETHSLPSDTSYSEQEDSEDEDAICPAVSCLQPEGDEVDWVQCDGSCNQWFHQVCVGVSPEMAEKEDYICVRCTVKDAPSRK", "assay": "Primary screen for KDM5B Histone Demethylases FDH-coupled qHTS; further: nearly all actives have a fitted effect of over 70% in size; on activity change, negative = inhibition: 0% is about no effect", "settings": "FDH-coupled NADH fluorescence (FDH is formaldehyde dehydrogenase); activity change, negative = inhibition: at 57.7 µM (top of the series) unless noted", "in_short": "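qHTS format, multiple compound concentrations. Buffer 50 mM HEPES pH 7.5/0.01% Tween-20; 200 nM KDM5BΔAP final; 10 min compound preincubation; substrate-mix levels 12.5 µM peptide, 25 µM α-KG, 0.25 mM NAD⁺; 30 min RT; ΔRFU.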"}
{"compound": "COC[C@H]1CCCN1C(=O)CC[C@H]1CNC(=O)[C@@H]2[C@@H](CCN2Cc2ccc(O)cc2)N1C", "activity change, negative = inhibition": "inactive: 23.7%"}
{"compound": "COc1ccc(C2(C(=O)N3CCCC(c4nc(-c5cccnc5)no4)CCNC(=O)CC3)CC2)cc1", "note": "(centres undefined)", "activity change, negative = inhibition": "inactive: -22.5%"}
{"compound": "CC[C@@]1(C(=O)O)C[C@H](C(=O)NC(CO)CO)[C@H](c2ccc(F)cc2)N1C", "Potency": "inconclusive: 28.2 µM [inhibitor, single point]"}
{"compound": "COc1ccc(-c2cc(C[C@@H]3C[C@H](NCc4ccncc4)C3(C)C)no2)cc1", "Potency": "inconclusive: 39.8 µM [inhibitor, partial curve, poor fit]"}
{"compound": "N#Cc1ccccc1CNc1ccc(F)c(Cl)c1", "activity change, negative = inhibition": "inactive: -9.79%"}
{"compound": "COc1cc(Cl)c(C)cc1NC(=O)C1CCCN(c2ncnc3onc(-c4ccc(F)cc4)c23)C1", "note": "(centres undefined)", "Potency": "inconclusive: 25.1 µM [inhibitor, single point]"}
{"compound": "COc1cccc(Nc2cc3c(cn2)CN(Cc2cccnc2)CCN3)c1", "activity change, negative = inhibition": "inactive: -20.2% [at 86.2 µM]"}
{"compound": "C[N+]1(CC(=O)OCCCC2CCCCC2)CCOCC1", "activity change, negative = inhibition": "inactive: 15.7%"}
{"compound": "CCc1cnc(N2CCC(COc3ccc4c(cnn4CCC(=O)O)c3)CC2)nc1", "Potency": "active: 39.8 µM"}
{"compound": "COc1cccc(OC)c1C(=O)Nc1ccc(-c2nc3ccc(C)cc3o2)cc1", "Potency": "inconclusive: 1.78 µM [inhibitor, partial curve, poor fit]"}
{"compound": "CC(C)c1ccc(C2C(C#N)=C(SCC(N)=O)NC3=C2C(=O)CCC3)cc1", "note": "(centres undefined)", "Potency": "inconclusive: 28.2 µM [inhibitor, single point]"}
{"compound": "OC1(c2csc(CN3CCc4ccccc4C3)n2)CCN(C2CCC2)CC1", "Potency": "inconclusive: 28.2 µM [inhibitor, partial curve]"}
{"compound": "Cc1ccsc1C(=O)N1C[C@@H](Oc2cccnc2)C[C@@H]1C(=O)N1CCOCC1", "activity change, negative = inhibition": "inactive: -5.3%"}
{"compound": "O=C(c1cc2ccccc2oc1=O)N1CCC(Cc2ccccc2)CC1", "activity change, negative = inhibition": "inactive: 7.13%"}
{"compound": "CCOC(=O)c1ccc(CN(Cc2ccc(F)cc2)S(=O)(=O)c2ccc(F)c(C(=O)Nc3ccccc3C(F)(F)F)c2)cc1", "Potency": "inconclusive: 28.2 µM [inhibitor, single point]"}
{"compound": "CC(C)CNC(=O)c1ccc2c(c1)C1(CCN(C)C1)CN2CC1CCOCC1", "note": "(centres undefined)", "Potency": "active: 35.5 µM"}
{"compound": "Cn1c(COc2ccccc2C(C)(C)C)nc2ccccc21", "Potency": "inconclusive: 15.8 µM [inhibitor, partial curve, poor fit]"}
{"compound": "CC1(C)C(=O)N(CCOc2ccccc2)[C@H]2CN(Cc3ccc4c(c3)CCO4)C[C@H]2[S+]1(=O)[O-]", "Potency": "inconclusive: 28.2 µM [inhibitor, single point]"}
{"compound": "COc1ccc(S(=O)(=O)c2cc3cc(C(C)(C)C)cc(O)c3oc2=O)cc1", "Potency": "inconclusive: 3.16 µM [inhibitor, partial curve, poor fit]"}
{"compound": "Cn1cccc1C(=O)N1CC(Oc2ccc(-c3nc(-c4ccccc4)no3)cc2)C1", "Potency": "active: 28.2 µM"}
{"compound": "Cc1ccc(CN[C@@H]2CO[C@H](CNC(=O)C3CCCC3)[C@H]2O)cc1", "activity change, negative = inhibition": "inactive: 26.4% [at 86.2 µM]"}
{"compound": "COC(=O)c1cn([C@H]2CO[C@H]3[C@@H]2OC[C@@H]3NCc2ccccc2)nn1", "activity change, negative = inhibition": "inactive: 27.2% [at 86.2 µM]"}
{"compound": "COc1ccc(NC(=O)CSC2=NC3(CCCCC3)Nc3ccccc32)cc1Cl", "Potency": "inconclusive: 28.2 µM [inhibitor, single point]"}
{"compound": "Cc1ccc(C(=O)N2CCCn3ccnc3C2C(C)C)c(=O)[nH]1", "note": "(centres undefined)", "activity change, negative = inhibition": "inactive: -29.1%"}
{"compound": "O=c1c2sc3ccccc3c2n(Cc2cccc(C(F)(F)F)c2)c(=O)n1-c1ccccc1", "Potency": "inconclusive: 17.8 µM [inhibitor, partial curve, poor fit]"}
{"compound": "CCn1c(=O)c(-c2noc(C(=O)N3CCC(c4ccccc4)C3)n2)nn(-c2ccc(F)cc2)c1=O", "note": "(centres undefined)", "Potency": "inconclusive: 39.8 µM [inhibitor, single point]"}
{"compound": "Cc1ccc2c(c1)N(C(=O)Nc1ccc(Br)cc1F)CCO2", "Potency": "inconclusive: 35.5 µM [inhibitor, single point]"}
{"compound": "CCCOc1ccc(NC(=O)COc2ccccc2C)c2cccnc12", "activity change, negative = inhibition": "inactive: -25.7%"}
{"compound": "COc1cncc(N2C[C@@H]3[C@H](C2)N(CCOc2ccccc2)C(=O)C(C)(C)[S+]3(=O)[O-])c1", "Potency": "inconclusive: 3.16 µM [inhibitor, full curve]"}
{"compound": "COC(=O)c1cn([C@H]2CO[C@H]3[C@@H]2OC[C@@H]3NC(=O)C2CC2)nn1", "Potency": "inconclusive: 35.5 µM [inhibitor, partial curve, poor fit]"}
{"compound": "COCCNc1nc(C(C)C)c2c(c1C#N)CCCC2", "Potency": "inconclusive: 28.2 µM [inhibitor, partial curve, poor fit]"}
{"compound": "COCC1CN(C2CCC2)CC12CCN(C(=O)COc1ccc(F)cc1)CC2", "note": "(centres undefined)", "Potency": "active: 10 µM"}
{"compound": "COc1ccc(OC)c(CNC(=O)c2ncoc2-c2cccc(Cl)c2)c1", "Potency": "inconclusive: 39.8 µM [inhibitor, single point]"}
{"compound": "O=C(c1ccc(F)cc1)c1ccc(OCc2ccc(-c3ccccc3)cc2)cc1", "activity change, negative = inhibition": "inactive: -4%"}
{"compound": "COc1ccc2oc(-c3ccccc3C)cc(=O)c2c1", "Potency": "inconclusive: 28.2 µM [inhibitor, partial curve, poor fit]"}
{"compound": "c1ccc(-n2c3ccccc3c3ccccc32)cc1", "Potency": "inconclusive: 28.2 µM [inhibitor, single point]"}
{"compound": "COc1ccc(C(=O)NCc2nnc3ccc(-c4ccc(C)c(C)c4)nn23)c(OC)c1", "Potency": "inconclusive: 39.8 µM [inhibitor, partial curve, poor fit]"}
{"compound": "FC(F)(F)c1cccc(N2CCN(c3nc4ccccc4n4cnnc34)CC2)c1", "Potency": "inconclusive: 10 µM [inhibitor, partial curve, poor fit]"}
{"compound": "COc1cc(OC)c(NC(=O)N(C)CCc2noc(C(=O)NCc3ccccc3)n2)cc1Cl", "activity change, negative = inhibition": "inactive: 2.87%"}
{"compound": "O=C(NC1CC1)c1cc2sccc2n1Cc1ccccc1Cl", "activity change, negative = inhibition": "inactive: -1.69%"}
{"compound": "CC(=O)C1C(=O)CC(C)(O)C(C(C)=O)C1c1ccc(Cl)cc1", "note": "(centres undefined)", "activity change, negative = inhibition": "inactive: 20.5%"}
{"compound": "CN(C)CCCNCc1ccccc1", "activity change, negative = inhibition": "inactive: 15.6%"}
{"compound": "O=C(NC1CCCC1)c1cc(C2CC2)nc2onc(C3CCNC3)c12", "note": "(centres undefined)", "Potency": "inconclusive: 89.1 µM [inhibitor, partial curve]"}
{"compound": "COCCNC(=O)c1cc(-c2ccccc2Cl)nc2ccccc12", "activity change, negative = inhibition": "inactive: -1.63%"}
{"compound": "FC(F)(F)c1cccc(CSc2nc(-c3ccccc3)c3ccccc3n2)c1", "activity change, negative = inhibition": "inactive: 10.4%"}
{"compound": "COc1ccc(/C=C/C(=O)Nc2cc(-c3nc4ccccc4o3)ccc2OC)cc1", "Potency": "inconclusive: 12.6 µM [inhibitor, partial curve, poor fit]"}
{"compound": "c1cncc(-c2cc(-c3cccc4cc[nH]c34)cn3cncc23)c1", "Potency": "active: 35.5 µM"}
{"compound": "CC1Nc2ccc(C(=O)NC3CCCCC3)cc2NC1=O", "note": "(centres undefined)", "Potency": "inconclusive: 28.2 µM [inhibitor, partial curve, poor fit]"}
{"compound": "COc1ccccc1C(=O)NCC(=O)N/N=C/c1ccc2c(c1)OCO2", "activity change, negative = inhibition": "inactive: -1.31%"}
{"compound": "CCCCc1cn([C@@H]2CN[C@H](C(=O)O)C2)nn1", "Potency": "inconclusive: 10 µM [inhibitor, full curve, poor fit]"}
{"compound": "COc1ccc(C(=O)NCc2nnc3ccc(-c4ccc(Cl)cc4)nn23)c(C)c1", "Potency": "active: 25.1 µM"}
{"compound": "O=C(NC1CCN(c2cc(-c3cccs3)[nH]n2)C1)c1cccs1", "note": "(centres undefined)", "Potency": "inconclusive: 15.8 µM [inhibitor, partial curve, poor fit]"}
{"compound": "COc1cccc2cc(C(=O)C3=C(O)C(=O)N(CCN(C)C)C3c3ccc(Cl)cc3)oc12", "note": "(centres undefined)", "Potency": "inconclusive: 15.8 µM [inhibitor, partial curve, poor fit]"}
{"compound": "COc1ccc(CC(=O)N2CCc3nc(C(C)C)nc(-c4ccc(OC)cc4)c3CC2)cc1", "activity change, negative = inhibition": "inactive: 6.13%"}
{"compound": "N#Cc1cccnc1N1CCCC(CO)(CCCc2ccccc2)C1", "note": "(centres undefined)", "Potency": "inconclusive: 15.8 µM [inhibitor, partial curve, poor fit]"}
{"compound": "Cc1cccc(CN(C)C(=O)c2cc(-c3cnc(C)nc3)nc3cc(F)ccc23)n1", "Potency": "inconclusive: 0.891 µM [inhibitor, full curve]"}
{"compound": "COc1cccc([S+](=O)([O-])N2CCCC3(CC(c4ccccn4)=NO3)C2)c1", "note": "(centres undefined)", "activity change, negative = inhibition": "inactive: 11.3% [at 115 µM]"}
{"compound": "Cc1ccccc1C(=O)NC1CCN(c2cc(-c3ccc(Cl)cc3)[nH]n2)C1", "note": "(centres undefined)", "Potency": "inconclusive: 6.31 µM [inhibitor, partial curve, poor fit]"}
{"compound": "COc1ccc(CN2C=C(C(=O)OCc3nc(-c4ccccc4)no3)C(C)=NS2(=O)=O)cc1", "Potency": "inconclusive: 15.8 µM [inhibitor, partial curve, poor fit]"}
{"compound": "NC(=S)NCc1ccccc1Cl", "activity change, negative = inhibition": "inactive: -7.41%"}
{"compound": "COc1ccccc1CNc1nc2ccccc2nc1NS(=O)(=O)c1cccs1", "Potency": "inconclusive: 25.1 µM [inhibitor, partial curve, poor fit]"}
{"compound": "COCCNc1ncccc1-c1noc([C@@H]2CCCN2Cc2cc(OC)c(OC)c(OC)c2)n1", "Potency": "active: 31.6 µM"}
{"compound": "CN1CCN(c2ccc3ncc(Nc4ccccc4F)n3n2)CC1", "Potency": "inconclusive: 35.5 µM [inhibitor, single point]"}
{"compound": "Cc1ccc(CSc2nc3c(=O)n(C)c(=O)n(C)c3n2C)cc1", "activity change, negative = inhibition": "inactive: -16.3%"}
{"compound": "CC(C)Nc1ncc(C(=O)NC2CCCN(CCc3ccccc3)C2)cn1", "note": "(centres undefined)", "Potency": "active: 25.1 µM"}
{"compound": "CC#CCn1cc2c3c(cccc31)[C@H](CC(C)C)N[C@H](C(=O)N1CCN(C)CC1)C2", "Potency": "inconclusive: 28.2 µM [inhibitor, single point]"}
{"compound": "O=C(c1cccc2[nH]ccc12)N1CCC2(CC1)CN(c1ncccn1)CC2CO", "note": "(centres undefined)", "Potency": "active: 31.6 µM"}
{"compound": "CC12CC3CC(C1)CC(c1ccc(O)cc1)(C3)C2", "Potency": "inconclusive: 39.8 µM [inhibitor, single point]"}
{"compound": "Fc1ccc2[nH]c3c(N4CCc5ccccc5C4)ncnc3c2c1", "Potency": "inconclusive: 28.2 µM [inhibitor, partial curve, poor fit]"}
